Measured values reported in the supplement of paper PMC3334620.
In all, about 33,000 sequences were measured (“E-score (-0.5 to 0.5)”: median about -0.04, highest 2% from about 0.36 on). The list shows a part of the results.

target: T1, Hmlalpha2 (UniProt P0CY09); assay: PBM E-score (8-mer binding enrichment) (E-score (-0.5 to 0.5)); higher = stronger / more preferred TF binding; most listed sequences are background and not binding sites; settings: protein concentration: 200 nM; construct: GST-full length
T1 sequence: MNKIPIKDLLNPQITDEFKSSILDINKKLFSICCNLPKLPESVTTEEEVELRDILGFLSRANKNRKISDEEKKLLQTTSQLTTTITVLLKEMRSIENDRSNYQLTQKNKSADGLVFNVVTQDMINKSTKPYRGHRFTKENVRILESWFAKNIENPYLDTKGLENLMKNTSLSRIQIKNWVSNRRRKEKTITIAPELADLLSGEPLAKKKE
Method: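 Universal 'all 10-mer' protein binding microarrays (Agilent AMADID 015681) probed with GST-tagged S. cerevisiae TFs (full-length or DBD) made by in vitro transcription/translation (PURExpress), about 100-200 nM. Bound TF was detected with fluorescent anti-GST. Each ungapped 8-mer (which stands for itself and its reverse complement) is scored by the PBM enrichment score (E-score), a modified Wilcoxon-Mann-Whitney statistic from -0.5 to +0.5, computed with the Universal PBM Analysis Suite. Scale: above 0.35 generally sequence-specific binding.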

Sequence | PBM E-score
ATAAAAGC | -0.0672
TTACCAAA | 0.102
AGTGGTTC | -0.0849
GATGAGGC | -0.301
ACGTCAGT | -0.158
GACGTATA | 0.17
CACGCCAA | 0.0728
CACGTCGG | 0.0248
CAATCGGA | -0.0181
CCTGTACG | 0.0613
AGTGTCGG | -0.13
CAGGCAGG | -0.0222
AATCGTCA | 0.0586
GCCCGCGC | -0.178
ACCGTAGG | -0.178
CACCCCTG | -0.137
CCTATCCG | -0.315
CGGCGACG | -0.128
CGCGTTAA | 0.427
AATCGTGA | -0.00694
AGAAAAGG | -0.105
ATAAACGG | -0.0499
GATGATAC | -0.00858
TACATACA | 0.443
GCTAATAA | 0.0127

Sequence | PBM E-score
ACGTTTTG | 0.134
CGCGGTTA | 0.109
CCGGTGAG | -0.226
GTCTAAAA | 0.0507
GGCGAGCA | -0.257
AAAGGTGA | -0.0525
GGATTGCA | 0.00103
GGGAGATA | -0.216
CGAACACA | 0.209
AGAGAATC | -0.114
CCGATCGC | -0.0743
AGTATGAT | 0.0934
TCATCGAA | -0.0231
GAGACGGA | -0.095
TACCGTGA | -0.0306
CTTACATC | 0.283
ACTGTCAA | -0.0749
ATGGTGCA | 0.0104
CTTGAGTC | -0.141
ATAGAGCG | -0.2
ACTTCTCT | 0.0893
CTGACTTA | 0.0614
AATTGCCC | -0.175
AGCAGGCT | -0.142
CCAGAACG | 0.0593

Sequence | PBM E-score
ATCGCCCG | -0.188
ACCGGTCA | -0.099
GTACGCAC | 0.0802
GAGTCCAA | 0.095
CACTGGTA | -0.0231
CCATCGTC | -0.277
AATAGAAT | 0.0964
GGTACACC | -0.0541
ATCACTAG | -0.116
TGACGGCA | -0.167
CAACAGAC | 0.0475
CTAGTCCC | -0.227
AATGTACT | 0.186
ACGGCTCG | -0.0132
GTCAACAC | 0.358
CAGAAAAC | 0.177
CAGCTGTA | -0.117
TATTCGAA | -0.114
CACCGGTA | -0.143
ATCGGTGA | 0.0663
ATTACCGA | 0.0482
AGTCCACG | -0.172
CACATTCG | 0.135
AGATTATC | -0.206
AATGCTCA | -0.0253

Sequence | PBM E-score
CTCCCTAA | -0.0306
CCGTTATC | -0.145
AGCGAAGG | -0.149
ACAATCAA | 0.206
GACGGAGC | -0.322
CCCTAGCG | -0.313
AAATGATG | 0.117
AACGACAA | 0.224
CCGCTTTA | 0.151
ATAGATTA | 0.151
GCCCGAAA | -0.0843
GCCGTCCA | -0.114
CATCGCAG | -0.129
GGGTGTTA | 0.195
AGACGCTG | -0.0863
CTTTCCGA | -0.189
ATGACCGC | -0.164
CGCGAACA | 0.116
AATTGCTC | -0.247
ACTGATCA | 0.0649
ATGCAACG | 0.139
AGGTATGA | 0.0876
ACAACGTC | 0.197
GGCTTCCA | -0.356
ATGATAAC | 0.246

Sequence | PBM E-score
GATGAGCC | -0.213
GGATTCCA | 0.0857
CGCCCCTC | -0.159
CACGGGTC | 0.00809
CAGATCTA | 0.0478
CACCATGA | -0.188
ATCACATA | 0.252
GACGGTAC | -0.0778
CTTTGGGC | -0.181
CAACGCTA | -0.0373
CGCAACCA | -0.0283
ACGAATGG | 0.0117
AATGCGCT | -0.0192
CATTGCAG | 0.074
CGACGGTA | -0.0674
GATTTCTA | -0.037
CCAGAGAC | -0.237
AGTTGACC | -0.0988
CCCAGCAA | -0.0162
GCTAACCC | -0.0929
ATAGCTAG | -0.108
CGAGAGGA | -0.0167
GTCAAGGA | 0.0281
AAACCTAA | 0.0553
ACAGGAAG | 0.0597

Sequence | PBM E-score
GAAGAACA | 0.298
TCATCACA | 0.0876
GAAGATTA | 0.0807
AACGAATT | 0.022
CCAACAAA | 0.224
TAGGTGCA | -0.193
ACACAGCT | 0.298
GTCGATAA | 0.0673
AGATGGAC | -0.156
ACTGAGCA | -0.0094
AAAGAAGT | 0.123
ATGGGGGA | -0.321
CAACTTGA | 0.125
CAGGTGCC | -0.262
GACTCATC | -0.216
ACGCACGG | 0.0872
ATTCGGTA | 0.181
AGCCAAAG | -0.133
CCGTGTGA | 0.292
CGTGCAGA | 0.0241
TCTCGGAA | -0.0555
CATTCGAG | 0.058
AATTAAGG | -0.0679
AAATGTGC | 0.0196
TGCGACCA | -0.117

Sequence | PBM E-score
GGCTCCGA | -0.166
CAGGGAAC | -0.105
AAGAACCA | -0.0365
AATTCAGT | -0.0546
AATACGCT | 0.234
CAGATGGC | -0.00972
ACATGAAA | 0.302
CATATGGC | -0.118
ATTTGAGG | -0.169
GTTGGTGA | -0.0661
GGTCACTA | -0.204
CGGGACAA | -0.193
ACTAATAT | 0.095
AACGCAAC | 0.299
ATCGGTCG | -0.0664
GGTCTACA | 0.328
GTAAATGA | 0.324
AAAGCTCG | 0.00761
GGCACCAA | -0.00607
ATTCGGAC | 0.173
GATGTAGA | 0.314
AGGCACCT | -0.269
